Measured values as given in PubChem BioAssay (Tox21).
Values joined by “and” are separate entries in the source; they are usually repeats but may differ in a detail not shown here. Equal entries are not always repeated. Inconclusive results, whose numbers are uncertain, are shown with a selection of clear calls. For some of these results: Potencies beside an inconclusive call are fits to weak or partial responses and may not hold up. Where a structure was tested more than once in an assay, its records may differ in their call. Active and inactive are the calls of the source. Unless noted, calls follow the shape of the dose curve; as a rule, active = well fitted curve in the direction sought with a large enough effect in the repeat runs; inconclusive = weak or mixed curves; inactive = no such curve, though single readings can be large; an effect the other way counts as inactive or inconclusive.

Legend:
[1] = qHTS assay to identify small molecule agonists of the TGF-beta/Smad signaling pathway - cell viability counter screen (AID 1346829); also: nearly all actives have a fitted effect of over 45% in size
In short: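 In parallel with the Smad reporter read, viability of HEK 293T cells stably carrying SBE-bla is quantified by ATP luminescence following 5 hr compound treatment.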

[2] = qHTS assay to identify small molecule antagonists of the TGF-beta/Smad signaling pathway (AID 1346924; active = well fitted inhibition curve with a large enough effect in the signal ratio in the repeat runs, not every such curve was filed as active; inconclusive = weak or mixed curves; the % refers to the signal ratio); conditions: SBE-bla HEK293T, TGF-beta/Smad reporter, beta-lactamase ratio; activity, negative = inhibition: at 76.8 µM (top of the series) unless noted
In short: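 SBE-bla HEK 293T cells were plated overnight, then received compound in DMSO plus TGF-beta1 (added as a 0.25 ng/mL solution) and were incubated 5 h at 37 C. Beta-lactamase reporter activity was read after 2 h at room temperature with LiveBLAzer B/G FRET substrate (ex 405, em 460/530 nm).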

[3] = Human pregnane X receptor (PXR) small molecule agonists, qHTS cell viability counter screen (AID 1346977); also: nearly all actives have a fitted effect of over 50% in size
In short: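 Fluorescence read-out (CellTiter-Fluor) of viability in PXR-Luc HepG2 cells, multiplexed with the luciferase agonist read. Compounds in DMSO added after 5hr plating; 24hr total exposure at 37C, 5% CO2.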

[4] = Caspase-3/7 induction in CHO-K1 cells by small molecules, qHTS cell viability counter screen (AID 1346979); also: nearly all actives have a fitted effect of over 35% in size
In short: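 CHO-K1 wt, 1,500 cells/well; 5hr pre-incubation 37C/5% CO2; compound pin transfer (DMSO); 16hr exposure; CellTiter-Fluor added, 1hr, fluorescence read.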

[5] = biological target: Acetylcholinesterase (Homo sapiens) (UniProt P22303); assay: Acetylcholinesterase (AChE) small molecule antagonists: colormetric cell-based qHTS assay (AID 1347395; calls by dose curve; also: nearly all actives have a fitted effect of over 30% in size; as to activity, negative = inhibition: % is scaled to controls: 0 for no effect and ±100 for the full control effect)
In short: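 SH-SY5Y cells; cpd 30 min 37 C; + DTNB/acetylthiocholine, 90 min 37 C; colorimetric thiocholine read; qHTS.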

[6] = biological target: Acetylcholinesterase (Homo sapiens) (UniProt P22303); assay: Acetylcholinesterase (AChE) small molecule antagonists: fluorescence cell-based qHTS assay (AID 1347398; calls by dose curve; also: nearly all actives have a fitted effect of over 50% in size); conditions: Potency: AChE activity
In short: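 Read-out is Thiolite Green fluorescence at Ex/Em = 490/520 nm, formed by reaction with thiocholine released when cellular AChE in SH-SY5Y cells hydrolyzes acetylthiocholine. Compounds were preincubated 30 min at 37 C before substrate.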

[7] = biological target: Cytochrome P450 2D6 (Homo sapiens) (UniProt P10635); assay: Cytochrome P450 Family 2 Subfamily D Member 6 (CYP2D6) small molecule antagonists: luciferase reporter qHTS assay (AID 1671196); also: nearly all actives have a fitted effect of over 50% in size
In short: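 CYP2D6 enzyme–substrate mix was held with compound for 10 min at room temperature, then NADPH regeneration solution was added and the reaction ran 1 h at room temperature. Luciferin product was detected by luminescence after 20 min with detection reagent.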

[8] = biological target: Cytochrome P450 2C19 (Homo sapiens) (UniProt P33261); assay: Cytochrome P450 Family 2 Subfamily C Member 19 (CYP2C19) small molecule antagonists: luciferase reporter qHTS assay (AID 1671197); also: nearly all actives have a fitted effect of over 65% in size
In short: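 Compounds were tested on CYP2C19 activity via proluciferin conversion to luciferin. The 37C, 1 h reaction followed NADPH addition; detection reagent stopped it.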

[9] = qHTS assay to identify small molecule agonists of the TGF-beta/Smad signaling pathway (AID 1346859; active = well fitted activation curve with a large enough effect in the signal ratio in the repeat runs, not every such curve was filed as active; inconclusive = weak or mixed curves; the % refers to the signal ratio; as to activation: % is scaled to controls: 0 for no effect and ±100 for the full control effect); conditions: SBE-bla HEK293T, TGF-beta/Smad beta-lactamase reporter, 5 h; activation: at 76.8 µM (top of the series) unless noted
In short: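 Read-out: fluorescence at 460 and 530 nm (405 nm excitation) after a 2 hr room-temperature incubation with beta-lactamase FRET substrate. SBE-bla HEK 293T cells had been treated with test compounds for 5 hr at 37 C.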

[10] = Caspase-3/7 induction in HepG2 cells by small molecules, qHTS cell viability counter screen (AID 1346981); also: nearly all actives have a fitted effect of over 30% in size
In short: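 Wild-type HepG2 cells (2,000/well) were allowed to settle for 5 hr at 37 C, 5% CO2, then dosed with compounds in DMSO by pin transfer. After 16 hr at 37 C, CellTiter-Fluor was added and fluorescence read 1 hr later.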

[11] = Caspase-3/7 induction in HepG2 cells by small molecules, qHTS assay (AID 1346978); also: nearly all actives have a fitted effect of over 15% in size
In short: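 Caspase-3/7 induction was measured by Caspase-Glo 3/7 luminescence (30 min, room temperature) after a 17 hr compound exposure of wild-type HepG2 cells seeded at 2,000 per well and pre-incubated 5 hr.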

[12] = Caspase-3/7 induction in CHO-K1 cells by small molecules, qHTS assay (AID 1346980); also: nearly all actives have a fitted effect of over 15% in size
In short: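 Luminescent Caspase-Glo 3/7 read (30min, room temperature) quantified apoptosis induction. Cells were wild-type CHO-K1, treated with compound for 17hr at 37 C and 5% CO2.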

[13] = biological target: Acetylcholinesterase (Homo sapiens) (UniProt P22303); assay: Acetylcholinesterase (AChE) small molecule antagonists: enzyme-based qHTS assay (AID 1347397; calls by dose curve; also: nearly all actives have a fitted effect of over 55% in size); conditions: Potency: AChE enzyme activity inhibition
In short: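 rhAChE 50 mU/mL (dispensed) + cpd or DMSO, 30 min RT; add DTNB/acetylthiocholine cocktail, 10 min RT; colorimetric thiocholine readout. qHTS, 1536-well format.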

[14] = biological target: Acetylcholinesterase (Homo sapiens) (UniProt P22303); assay: Acetylcholinesterase (AChE) small molecule antagonists: enzyme-based qHTS assay with human liver microsomes (AID 1347399; calls by dose curve; also: nearly all actives have a fitted effect of over 60% in size); conditions: Potency: qHTS inhibition
In short: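 Recombinant human AChE (50 mU/mL in the enzyme mix) and human liver microsomes (0.25 mg/mL final) were preincubated with compound and NADPH (0.25 mg/mL final) for 30 min at 37 C. Acetylthiocholine/DTNB was then added; thiocholine was read colorimetrically after 10 min at room temperature.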

[15] = biological target: Nuclear receptor subfamily 1 group I member 2 (Homo sapiens) (UniProt O75469); assay: Human pregnane X receptor (PXR) small molecule agonists, qHTS assay (AID 1346982); also: nearly all actives have a fitted effect of over 35% in size
In short: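 PXR-Luc HepG2 cells (CYP3A4 promoter-driven luciferase) were seeded in medium with 5% charcoal-stripped FBS, left 5 hr at 37 C, then exposed to compounds in DMSO for 24 hr. Luminescence was read after ONE-Glo addition.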
Potency is read from the fitted curve at half-maximal effect; tags tell the direction and shape of the fitted curve or compound fluorescence and quenching.

Chain of UniProt P22303 (P22303 whole entry, looked up): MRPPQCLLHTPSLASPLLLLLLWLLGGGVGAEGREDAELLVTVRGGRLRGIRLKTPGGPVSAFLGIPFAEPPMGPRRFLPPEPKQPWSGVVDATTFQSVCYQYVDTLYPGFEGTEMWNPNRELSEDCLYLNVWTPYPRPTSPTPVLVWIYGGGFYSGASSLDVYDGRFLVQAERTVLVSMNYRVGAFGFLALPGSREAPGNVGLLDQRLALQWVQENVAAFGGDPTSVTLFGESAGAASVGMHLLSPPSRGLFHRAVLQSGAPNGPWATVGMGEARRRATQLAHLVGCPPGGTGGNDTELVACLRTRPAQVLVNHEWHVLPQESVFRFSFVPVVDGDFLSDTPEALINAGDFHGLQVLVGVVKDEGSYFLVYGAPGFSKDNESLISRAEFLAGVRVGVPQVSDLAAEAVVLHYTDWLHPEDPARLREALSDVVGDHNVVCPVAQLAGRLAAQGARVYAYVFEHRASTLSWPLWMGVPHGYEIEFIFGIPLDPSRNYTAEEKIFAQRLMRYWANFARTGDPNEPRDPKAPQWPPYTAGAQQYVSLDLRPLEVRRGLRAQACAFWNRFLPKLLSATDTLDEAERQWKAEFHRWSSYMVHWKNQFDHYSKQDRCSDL
Chain of UniProt P10635 (P10635 whole entry, looked up): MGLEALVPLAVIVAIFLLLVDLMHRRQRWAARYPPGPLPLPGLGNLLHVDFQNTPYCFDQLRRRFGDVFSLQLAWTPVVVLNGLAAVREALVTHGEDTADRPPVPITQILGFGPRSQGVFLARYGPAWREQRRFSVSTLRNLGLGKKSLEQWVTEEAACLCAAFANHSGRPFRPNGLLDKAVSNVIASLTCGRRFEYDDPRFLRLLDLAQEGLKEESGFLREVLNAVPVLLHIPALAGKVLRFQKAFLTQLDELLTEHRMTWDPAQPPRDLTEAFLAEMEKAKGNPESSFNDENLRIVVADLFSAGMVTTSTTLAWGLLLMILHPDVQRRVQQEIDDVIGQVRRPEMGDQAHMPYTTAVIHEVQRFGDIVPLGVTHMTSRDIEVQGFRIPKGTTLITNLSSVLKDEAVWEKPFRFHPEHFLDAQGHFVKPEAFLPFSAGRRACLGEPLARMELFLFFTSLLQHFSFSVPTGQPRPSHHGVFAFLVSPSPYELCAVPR
Chain of UniProt P33261 (P33261 whole entry, looked up): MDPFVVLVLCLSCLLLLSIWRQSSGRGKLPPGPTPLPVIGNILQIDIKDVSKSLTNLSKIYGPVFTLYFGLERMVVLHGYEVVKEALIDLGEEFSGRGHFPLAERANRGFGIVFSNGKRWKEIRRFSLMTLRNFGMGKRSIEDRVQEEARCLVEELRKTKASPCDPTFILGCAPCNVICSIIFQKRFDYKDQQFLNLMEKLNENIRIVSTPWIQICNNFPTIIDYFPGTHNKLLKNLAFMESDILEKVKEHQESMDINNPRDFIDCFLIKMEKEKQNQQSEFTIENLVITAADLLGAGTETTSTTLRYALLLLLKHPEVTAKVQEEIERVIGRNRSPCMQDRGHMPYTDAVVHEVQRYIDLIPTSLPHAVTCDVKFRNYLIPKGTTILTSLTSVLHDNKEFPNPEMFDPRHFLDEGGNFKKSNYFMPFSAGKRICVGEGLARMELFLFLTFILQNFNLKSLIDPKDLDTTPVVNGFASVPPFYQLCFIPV
Chain of UniProt O75469 (O75469 whole entry, looked up): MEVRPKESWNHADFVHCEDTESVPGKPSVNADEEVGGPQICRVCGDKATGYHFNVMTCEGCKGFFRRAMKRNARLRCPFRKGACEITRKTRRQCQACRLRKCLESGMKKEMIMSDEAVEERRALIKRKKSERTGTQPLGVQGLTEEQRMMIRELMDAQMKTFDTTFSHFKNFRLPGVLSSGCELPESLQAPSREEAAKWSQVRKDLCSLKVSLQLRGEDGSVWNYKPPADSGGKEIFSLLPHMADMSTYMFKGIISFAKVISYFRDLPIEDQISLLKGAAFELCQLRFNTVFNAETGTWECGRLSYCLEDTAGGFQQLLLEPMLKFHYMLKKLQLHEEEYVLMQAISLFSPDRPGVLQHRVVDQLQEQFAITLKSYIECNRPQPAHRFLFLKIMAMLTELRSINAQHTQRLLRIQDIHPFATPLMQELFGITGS

O=S(=O)(O)C(F)(F)C(F)(F)C(F)(F)C(F)(F)C(F)(F)C(F)(F)C(F)(F)C(F)(F)F
Potency [1]: inconclusive: 54.9 µM [cytotoxic, single point]
activity, negative = inhibition [2]: inconclusive: -13.6% and inconclusive: -13.4%
Potency [3]: inconclusive: 50.1 µM [cytotoxic]
Potency [4]: inconclusive: 65.3 µM [cytotoxic, single point] and inconclusive: 68.6 µM [cytotoxic] and inconclusive: 54.5 µM [cytotoxic]
Potency [5]: inconclusive: 86.8 µM [inhibitor]
Potency [6]: inconclusive: 71 µM [inhibitor, partial curve, poor fit]
Potency [7]: inconclusive: 31.7 µM [inhibitor, partial curve]
Potency [8]: inconclusive: 79.6 µM [inhibitor, single point]

C=CCC1(C(C)CC)C(=O)NC(=O)NC1=O (stereo not drawn)
Potency [1]: inactive
Potency [3]: inactive
Potency [6]: inconclusive: 43.6 µM [inhibitor, partial curve, poor fit]
Potency [8]: inconclusive: 17.4 µM [inhibitor, single point]

CO/N=C(/C(=O)OC)c1ccccc1COc1ccccc1C
Potency [1]: inconclusive: 2.75 µM [cytotoxic, full curve, poor fit]
Potency [9]: inconclusive: 19.5 µM [rising, partial curve]
Potency [3]: inconclusive: 7.7 µM [cytotoxic, full curve]
Potency [10]: inconclusive: 30.6 µM [cytotoxic, partial curve]

COc1cc(OC)nc(Oc2cccc(Oc3nc(OC)cc(OC)n3)c2C(=O)O)n1
Potency [1]: inactive

CCN(CC)C(=S)[S-].CCN(CC)C(=S)[S-].[Zn+2]
Potency [1]: active: 38.6 µM
Potency [3]: active: 1.71 µM
Potency [11]: active: 1.08 µM
Potency [12]: inconclusive: 762 nM [activator, partial curve]
Potency [10]: active: 27.1 µM
Potency [7]: inconclusive: 39.6 µM [inhibitor, partial curve]

O=S(=O)(C(Cl)(Cl)Cl)C(Cl)(Cl)Cl
Potency [1]: inconclusive: 61.6 µM [cytotoxic, single point]
Potency [9]: inactive
Potency [2]: inconclusive: 49 µM [rising, single point]
Potency [3]: active: 61.1 µM
Potency [4]: active: 8.63 µM
Potency [12]: inactive
Potency [10]: active: 61.1 µM
Potency [7]: inconclusive: 31.7 µM [inhibitor, partial curve]

Cc1cccc(N=Nc2ccc(N(C)C)cc2)c1
Potency [1]: inconclusive: 70.3 µM [cytotoxic, single point]
activity, negative = inhibition [2]: inconclusive: -17.5% and inconclusive: -14.3%
Potency [3]: inconclusive: 224 µM [cytotoxic, partial curve, poor fit]

[Hg+2].[I-].[I-]
Potency [1]: active: 54.9 µM
Potency [9]: inconclusive: 61.6 µM [falling, single point]
Potency [2]: inconclusive: 6.16 µM [full curve]
Potency [10]: active: 61.1 µM
Potency [13]: inconclusive: 71 µM [falling, partial curve]
Potency [14]: inconclusive: 79.6 µM [falling, single point]

O=[N+]([O-])O.O=[N+]([O-])O.[Cd]
Potency [1]: inconclusive: 0.0219 µM [cytotoxic, single point]
outcome [2]: inconclusive
Potency [10]: inconclusive: 61.1 µM [cytotoxic, single point]

CC(C)(Cl)[N+](=O)[O-]
Potency [9]: inconclusive: 43.8 µM [rising, partial curve]
activity, negative = inhibition [2]: inconclusive: 11.3%
Potency [15]: inconclusive: 61.4 µM [activator, single point]

O=C(O)c1nn(Cc2ccc(Cl)cc2Cl)c2ccccc12
Potency [9]: inconclusive: 17.3 µM [rising, partial curve] and inconclusive: 10.7 µM [rising, partial curve]
Potency [2]: inconclusive: 23.9 µM [rising, partial curve, poor fit]
activity, negative = inhibition [2]: inconclusive: -12.4%
Potency [5]: inactive
Potency [7]: active: 62.8 µM and inactive
Potency [8]: inconclusive: 88.8 µM [inhibitor, single point]

O=C(N[C@H](c1ccccc1)[C@@H]1CN2CCC1CC2)c1c(Cl)ccc(C(F)(F)F)c1Cl
Potency [9]: inconclusive: 35.2 µM [rising, partial curve]
activity, negative = inhibition [2]: inconclusive: -9.41%
Potency [10]: active: 55.3 µM
Potency [7]: active: 2.56 µM
Potency [8]: inconclusive: 144 µM [inhibitor, single point]

CCCCN(CCCC)C(=S)S
Potency [9]: inactive
